16 compounds from PubChem BioAssay (NCATS) can be followed below.

The list shows a part of the results. These are further read-outs of the screen, such as a control signal, another cell line or another target. No call is given for them. Compounds called inactive in the main read-out are mostly missing here. Potencies come from curve fits of mixed quality, noted in brackets.

The nature of this experiment: qHTS Assay for Lipid Storage Modulators (AID 1519). As to conditions: Drosophila S3 cells, BODIPY lipid droplet/cell ratio, laser cytometry, cells loaded with oleic acid. A digest of the protocol:
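Cells seeded at 5,000 per well were treated with compounds over a concentration series and loaded with oleic acid (400 uM, as added). Lipid droplet fluorescence (488 nm excitation, 500-530 nm channel) was read by laser-scanning cytometry and normalized to 20 uM Triacsin C.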

[1] abbreviates: measured here: cell count channel max response.
Setting [2] is: measured here: cell number channel AC50.
The mark [3] stands for this setting: measured here: lipid (BODIPY) channel AC50.
Setting [4] is: measured here: lipid channel max response.
Tags tell the direction and shape of the fitted curve.

In general, AC50 refers to the concentration giving half of the maximal activity seen. As for `COc1ccc(CC2c3cc(OC)c(OC)cc3CCN2C)cc1OC` (centres undefined), the max response is, setting by setting: under setting [1], 116%; under setting [4], 149%. For the same compound, the AC50 is 15.8 µM [rising, partial curve, poor fit] under setting [2] and 15.8 µM [rising, partial curve] under setting [3].

For the compound `COC(=O)N1CCN(C(=O)Cc2ccc(Cl)c(Cl)c2)[C@H](CN2CCCC2)C1`, the max response by setting is: under setting [1], 100%; under setting [4], 128%. For the same compound, the AC50 was 20 µM [rising, partial curve, poor fit] under setting [2] and 20 µM [rising, partial curve, poor fit] under setting [3].

As for `NC(C(=O)O)c1cc(=O)[nH]o1` (centres undefined), the max response runs as follows: under setting [1], 45.2%; under setting [4], 44.9%. For the same compound, the concentration at half-maximal activity (AC50) was 39.8 µM [rising, single point] under setting [2] and 39.8 µM [rising, single point] under setting [3].

`O=C(Oc1ccccc1)N1CCC[C@@]2(CCN(Cc3nccs3)C2)C1`: the max response is, setting by setting: under setting [1], 35.8%; under setting [4], 44.8%. Moreover, the AC50 reads like this: under setting [2], 1.26 µM [rising, full curve]; under setting [3], 0.355 µM [rising, full curve].

In the case of `COc1cc2c(c(OC)c1OC)-c1ccc(OC)c(=O)cc1[C@H](NC(C)=O)CC2`, the max response by setting is: under setting [1], 61.9%; under setting [4], 63.1%. The AC50 was 1 µM [rising, full curve, poor fit] under setting [2] and 0.708 µM [rising, full curve, poor fit] under setting [3].

For `C#CCN1C(C)=C(C(=O)CCO)[C@@H](c2cccc(-n3oo3)c2)C(C(=O)OC)=C1C`, the max response is, setting by setting: under setting [1], 99.5%; under setting [4], 150%. The AC50 runs as follows: under setting [2], 1 µM [rising, full curve]; under setting [3], 1.12 µM [rising, full curve].

`C[C@@]12CC[C@@H]3c4ccc(O)cc4C[C@H](CCCCCCCCCS(=O)CCCC(F)(F)C(F)(F)F)[C@H]3[C@@H]1CC[C@@H]2O` (some centres undefined): the max response under setting [1] is 80.2% and the max response under setting [4] came out at 98.9%. Besides, the concentration at half-maximal activity (AC50) was 7.94 µM [rising, partial curve] under setting [2] and 7.08 µM [rising, partial curve] under setting [3].

In the case of `COc1ccc(NC(=O)N2CCCC3(CCN(C(=O)Oc4ccccc4)CC3)C2)cc1`, the max response turned out to be 15.6% under setting [1] and 18.8% under setting [4]. Further, the AC50 under setting [2] was 1.41 µM [rising, full curve, poor fit] and the AC50 under setting [3] is 1.41 µM [rising, partial curve, poor fit].

As to `COc1ccc(C2Oc3c(I)c(OC)cc(OC)c3CC2O)cc1OC` (centres undefined), the max response runs as follows: under setting [1], 41.3%; under setting [4], 55.2%. In addition, the AC50 under setting [2] is 1.12 µM [rising, partial curve, poor fit] and the AC50 under setting [3] was 6.31 µM [rising, partial curve, poor fit].

Regarding `CCCN1CCCC(c2cccc(O)c2)C1` (centres undefined), the max response was -1.74% under setting [1] and -1.08% under setting [4]. In addition, the AC50 under setting [2] was 1.26 µM [falling, full curve, poor fit] and the AC50 under setting [3] is 1.41 µM [falling, full curve, poor fit].

Take `c1cc2cc(c1)C[n+]1ccc(c3ccccc31)NCc1ccc(cc1)CNc1cc[n+](c3ccccc13)C2`: the max response was found to be 19.2% under setting [1] and 18.8% under setting [4]. Besides, the AC50 under setting [2] was 6.31 µM [rising, full curve, poor fit] and the AC50 under setting [3] is 6.31 µM [rising, full curve, poor fit].

For the compound `CCCCCCCCCCCCCC(=O)OC1C(C)[C@@]2(O)C(C=C(CO)C[C@]3(O)C(=O)C(C)=C[C@H]23)[C@@H]2C(C)(C)[C@]12OC(C)=O` (some centres undefined), the max response turned out to be 25% under setting [1] and 50.3% under setting [4]. The AC50 is, setting by setting: under setting [2], 3.55 µM [rising, full curve, poor fit]; under setting [3], 3.98 µM [rising, full curve].

As for `CC[N+](CC)(CC)CCOc1cccc(OCC[N+](CC)(CC)CC)c1OCC[N+](CC)(CC)CC`, the max response is 44.2% under setting [1] and 46.4% under setting [4]. Also, the AC50 was 39.8 µM [rising, single point] under setting [2] and 39.8 µM [rising, single point] under setting [3].

`Oc1ccc2c3c1O[C@H]1c4c(c5ccccc5n4Cc4ccccc4)C[C@]4(O)[C@H](C2)N(CC2CC2)CC[C@@]314`: the max response reads like this: under setting [1], 83.9%; under setting [4], 99.4%. Further, the AC50 runs as follows: under setting [2], 31.6 µM [rising, partial curve, poor fit]; under setting [3], 35.5 µM [rising, partial curve, poor fit].

For `CC(C)C[C@H]1C(=O)N2CCCC2[C@]2(O)O[C@](NC(=O)[C@@H]3C=C4c5cccc6[nH]cc(c56)CC4N(C)C3)(C(C)C)C(=O)N12` (some centres undefined), the max response is, setting by setting: under setting [1], 83%; under setting [4], 112%. Moreover, the AC50 reads like this: under setting [2], 7.94 µM [rising, full curve]; under setting [3], 8.91 µM [rising, full curve].

`CN1C[C@@H](CO)C=C2c3cccc4[nH]cc(c34)CC21` (some centres undefined): the max response by setting is: under setting [1], 56.4%; under setting [4], 82.9%. The AC50 under setting [2] was 7.94 µM [rising, full curve, poor fit] and the AC50 under setting [3] was 10 µM [rising, partial curve].
